Experimental findings from EP4538285A1 (Chineo Medical Technology Co., Ltd., dated 2025) are described below.

This experiment addresses T1, Tilelizumab.
T1 construct: Biotin-labelled in flow cytometry; also called Tevimbra; Tislelizumab
Briefly: SPR, Biacore T200; PD1-RFc mobile phase, antibody stationary phase.

B1: Seq No.1-RFc (wild-type PD-1 fused to rabbit IgG Fc) (Fc fusion)
chain: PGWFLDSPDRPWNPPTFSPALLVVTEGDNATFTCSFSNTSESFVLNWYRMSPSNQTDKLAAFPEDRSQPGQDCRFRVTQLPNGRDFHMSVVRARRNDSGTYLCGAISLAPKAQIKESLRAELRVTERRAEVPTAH
notes: also called PD1-RFc; not shown: rabbit IgG Fc (RFc) of vector pcDNA3.4-RFc
On to B1, for which the Kd is 0.0135 nM, the koff was 4.21e-05 s⁻¹ and the kon is 3.12e+06 M⁻¹ s⁻¹.

In general, Kd refers to the constant that tells how readily two partners part at equilibrium. By koff is commonly meant the rate constant with which the complex falls apart. Higher therefore signals fast dissociation. In general, kon refers to a measure of how fast the partners come together. Higher therefore signals fast association.
